Assay results: PubChem BioAssay AID1745849 (National Center for Advancing Translational Sciences (NCATS), 2022)
Screen size: about 2,100 compounds; about 320 (15%) were called active. This list was built around the results that the source calls inconclusive (neither active nor inactive); the mix of calls is not that of the screen. Calls follow the shape of the dose curve; as a rule, active = well fitted cell-killing curve with a large enough effect; inconclusive = small, poorly fitted or top-dose-only effect, or effect the other way; inactive = flat fitted curve, though single readings scatter. Potencies beside an inconclusive call are fits to weak or partial responses and may not hold up.

assay: Viability Counterscreen for CMV-Luciferase Assay of Inhibitors of ATXN expression; conditions: HEK-293 CMV-luciferase cells viability, protease fluorescence, 24 h; activity change, negative = cytotoxicity: at the top concentration; also: nearly all actives have a fitted effect of over 55% in size
Method in brief: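 HEK-293 cells stably expressing a CMV-luciferase reporter were exposed to compounds at several concentrations for 24 hr at 37 degree C. Viability was read as Gly-Phe-AFC fluorescence (25 uM final, 30 min). SteadyGlo luminescence was then measured after 5 min.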
% is scaled to controls: 0 for no effect and ±100 for the full control effect; potency is read from the fitted curve at half-maximal effect; tags tell the direction and shape of the fitted curve.

Compound | Potency | activity change, negative = cytotoxicity
O=C(Nc1ccccc1Cl)N1CCCN(c2nc(-c3ccccc3)ns2)CC1 | inconclusive: 31.6 µM [cytotoxic, single point] | –
O=C(Nc1cccc(Cl)c1)c1ccc2c(c1)SC1=NS(=O)(=O)CCN12 | – | inactive: -19.6%
CCC(=O)OC1(C(C)=O)CCC2C3CCC4=CC(=O)CCC4(C)C3CCC21C (stereo unspecified) | – | inactive: -2.45% [at 57.5 µM]
COc1cc(-c2cc3nc(NCc4cccc(Cl)c4)ccn3n2)cc(OC)c1OC | inconclusive: 1.78 µM [cytotoxic, partial curve] | –
Cc1c(N/N=C(\C#N)C(=O)c2ccc(Cl)cc2)c(=O)n(-c2ccccc2)n1C | active: 2.51 µM | –
COc1ccc(O)c(/C=N/NC(=O)CSc2nnc(C)n2-c2ccccc2)c1 | inconclusive: 0.891 µM [cytotoxic, partial curve, poor fit] | –
O=C(Nc1nc(-c2ccccn2)cs1)c1ccc(F)c(S(=O)(=O)N2CCOCC2)c1 | active: 5.01 µM | –
Cc1ccc(N=Nc2ccc(O)c3ncccc23)cc1 | active: 10 µM | –
Cc1ncc(CO)c(/C=N/NC(=O)c2cccc(S(=O)(=O)N3CCCC3)c2)c1O | – | inactive: 29.5% [at 57.5 µM]
Clc1ccc2nc(-c3ccccn3)c(Nc3ccc4c(c3)OCO4)n2c1 | inconclusive: 8.91 µM [cytotoxic, partial curve] | –
Cc1nn2c(NCc3ccccn3)c3c(nc2c1-c1ccccc1)CCC3 | inconclusive: 8.91 µM [cytotoxic, full curve, poor fit] | –
Cc1cc(C(=O)N/N=C/c2cc(Br)ccc2OC(=O)c2ccccc2)n[nH]1 | – | inactive: -6.81%
CCn1c2ccccc2c2cc(C3C(C#N)=C(N)Oc4n[nH]c(COC)c43)ccc21 (stereo unspecified) | inconclusive: 10 µM [cytotoxic, partial curve, poor fit] | –
Cc1ccc2ccc(C(Nc3ccccn3)c3ccccc3)c(O)c2n1 (stereo unspecified) | inconclusive: 22.4 µM [cytotoxic, single point] | –
O=C1CN(C(=O)c2c(F)cccc2F)C(c2ccc(F)cc2)c2cc(Br)ccc2N1 (stereo unspecified) | – | inactive: -5.84%
Cc1cc(C)cc(C(=O)NC(=S)Nc2ccc(-c3cc4ccccc4oc3=O)cc2)c1 | inconclusive: 35.5 µM [cytotoxic, single point] | –
Cc1ccccc1OCC(=O)N/N=C/c1cccc2cccnc12 | inconclusive: 3.55 µM [cytotoxic, full curve] | –
Nc1ccn([C@@H]2O[C@H](CO)[C@@H](O)C2O)c(=O)n1 (stereo partly specified) | inconclusive: 5.01 µM [cytotoxic, partial curve] | –
O=C(Nc1nnc(-c2ccc(F)cc2)o1)c1cc(Cl)sc1Cl | inconclusive: 20 µM [cytotoxic, single point] | –
CCCCC(=O)NC(c1ccc(OC)c(OC)c1)c1ccc2cccnc2c1O (stereo unspecified) | inconclusive: 3.98 µM [cytotoxic, single point] | –
Cc1ccn2c(Nc3ccccc3C)c(-c3ccccn3)nc2c1 | active: 8.91 µM | –
C=CCn1c(C)c(/C=C/c2cc[n+](C)cc2)c2ccccc21 | – | inactive: 5.96%
CCCC1CCC(c2ccc(C(=O)NN)cc2)CC1 (stereo unspecified) | – | inactive: 6.52%

Compound | Potency | activity change, negative = cytotoxicity
Cc1ccc(CN2CCSc3ccc(C(=O)NC4CCN(Cc5ccccc5)CC4)cc32)cc1 | inconclusive: 4.47 µM [cytotoxic, single point] | –
COc1ccc(NC(=O)c2oc3ccc(S(=O)(=O)N4CCC5(CC4)OCCO5)cc3c2C)cc1 | – | inactive: -13.9%
Oc1c(C(c2ccccn2)N2CCC(Cc3ccccc3)CC2)cc(Cl)c2cccnc12 (stereo unspecified) | inconclusive: 6.31 µM [cytotoxic, single point] | –
NC1=NC[C@H](Cc2ccccc2)N1CCCCC1CCCCC1 | – | inactive: -3.06%
Cc1cnc(NC(=O)CN2CCN(c3ccccn3)CC2)s1 | inconclusive: 17.8 µM [cytotoxic, partial curve, poor fit] | –
O=c1cc(-c2ccncc2)oc2c1ccc1ccccc12 | – | inactive: -29.1% [at 57.5 µM]
COc1ccccc1-c1cc(NC=O)c2ncc(-c3ccc(F)cc3)n2c1 | inconclusive: 14.1 µM [cytotoxic, partial curve] | –
CC1CCC(CN2C(Nc3ccccc3)=NC[C@@H]2Cc2ccccc2)CC1 (stereo partly specified) | – | inactive: -22.9% [at 57.5 µM]
COc1cc(CNCc2ccncc2)cc(Br)c1OCc1ccccc1F | – | inactive: -8.06%
O=C(C1CC(=O)N(c2ccc3c(c2)OCCO3)C1)N1CCN(c2ccccc2)CC1 (stereo unspecified) | – | inactive: 1.88%
O=C(NN=Cc1ccc(O)cc1O)c1ccccc1NS(=O)(=O)c1cccs1 | – | inactive: -18.8%
Cc1cccc(NC(=O)c2ccc(S(=O)(=O)N(C)c3ccccc3)cc2)n1 | inconclusive: 15.8 µM [cytotoxic, partial curve, poor fit] | –
O=c1c2c(-c3ccccc3)csc2nc2c3ccccc3c(NCCN3CCOCC3)nn12 | – | inactive: -22%
O=C(CNC(=O)c1ccccc1Br)N/N=C/c1ccccc1O | inconclusive: 12.6 µM [cytotoxic, partial curve] | –
Cc1cc(SCC(=O)NN)c2cc(Br)ccc2n1 | inconclusive: 5.01 µM [cytotoxic, full curve, poor fit] | –
COc1cc2nc(CN(C)Cc3ccc(SC)cc3)[nH]c(=O)c2cc1OC | – | inactive: -19% [at 57.5 µM]
Cc1ccc(N(C)S(=O)(=O)c2cccc(C(=O)OCC(=O)c3c(N)n(C)c(=O)n(C)c3=O)c2)cc1 | inconclusive: 39.8 µM [cytotoxic, single point] | –
O=C(Nc1cccc(C(F)(F)F)c1)Oc1ccc(Cl)c2cccnc12 | inconclusive: 7.08 µM [cytotoxic, partial curve, poor fit] | –
COc1ccc(N2CCN(c3cc(C)nc4ccc(OC)cc34)CC2)cc1 | – | inactive: -27.2%
COc1ccc(C(=O)NCC(=O)N/N=C/c2ccc([N+](=O)[O-])s2)cc1OC | inconclusive: 25.1 µM [cytotoxic, partial curve, poor fit] | –
O=C(NCc1ccccc1)c1ccc(C(=O)N(C2CCCCC2)C2CCCCC2)cc1 | inconclusive: 31.6 µM [cytotoxic, single point] | –
Cc1ccc(OCC(=O)N/N=C/c2cccc3cccnc23)cc1 | inconclusive: 12.6 µM [cytotoxic, partial curve, poor fit] | –
O=C(N/N=C\c1c(O)ccc2ccccc12)c1ccc(S(=O)(=O)N2CCCCC2)cc1 | inconclusive: 31.6 µM [rising, single point] | –
